Article PMC7819943, “Rice protein-binding microarrays: a tool to detect cis-acting elements near promoter regions in rice”
The other results are listed elsewhere or left out.

Target: T1, OsWOX13 (Oryza sativa, UniProt Q5QMM3 1-267)
T1 sequence: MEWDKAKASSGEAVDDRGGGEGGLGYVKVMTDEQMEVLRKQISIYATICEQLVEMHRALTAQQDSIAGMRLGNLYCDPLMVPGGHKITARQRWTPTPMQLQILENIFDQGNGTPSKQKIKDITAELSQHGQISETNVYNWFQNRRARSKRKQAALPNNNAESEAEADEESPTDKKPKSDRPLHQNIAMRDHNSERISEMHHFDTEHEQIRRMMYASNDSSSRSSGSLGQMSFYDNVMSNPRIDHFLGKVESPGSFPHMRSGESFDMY
Test: protein-binding microarray (RPBM); PBS, 2% BSA, 51.3 ng/ul salmon testes DNA, 50 uM zinc acetate, 200 nM TF, 25 C, 1 h; high values mean tight binding
Conditions: protein: recombinant; tags: N-terminal polyhistidine and DsRed monomer fusion (pET32a); label: CyDye5-dUTP incorporated in the synthesized complementary strand; 3' TTTTT single-stranded linker to array surface; dsDNA, one strand shown
Summary of the method: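 Per-feature fluorescence intensity (arbitrary units), read on an Axon 4000B scanner, is the binding signal. Transcription factors carrying an N-terminal polyhistidine tag and DsRed fusion were expressed in E. coli BL21-CodonPlus and purified on Ni–NTA. A custom Agilent array, made double-stranded by primer extension with Cy5-dUTP and blocked with 2% BSA, was incubated with 200 nM protein in PBS, 2% BSA, salmon testes DNA and 50 µM zinc acetate at 25 °C for 1 h and then washed.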

Sequence | binding signal
GGCAAAACCGTAAATTTATCACATCCTGGTTTGCGCTGTGCGGAGTCACCTAGTGCAG | 3390 fluorescence intensity (a.u.)
ACCACCTGATAGCTAAGCTAATTAATTAAGCTAAGTACACCGGAGTCACCTAGTGCAG | 16600 fluorescence intensity (a.u.)
TAGTAGACTAGCAGGAGTCCACATCGTCCCATCAACGCTGCGGAGTCACCTAGTGCAG | 10100 fluorescence intensity (a.u.)
ATTACTATGATTACTATAATGTACCCTCAAAGCGTGTAGACGGAGTCACCTAGTGCAG | 7510 fluorescence intensity (a.u.)
GTAAACTGCAATCAATCAGCCATTAAAATCTCATGCTCTGCGGAGTCACCTAGTGCAG | 60000 fluorescence intensity (a.u.)
ATATGTTAAATATTTAATTAAATATTCGATGTGACCGGAGCGGAGTCACCTAGTGCAG | 17600 fluorescence intensity (a.u.)
CATGAACCTCCAAATTAAATAAATTATTTATTTCATTATTCGGAGTCACCTAGTGCAG | 5260 fluorescence intensity (a.u.)
CTAATTATAAATATTAAACGTAGACTATTAATAAAACCCACGGAGTCACCTAGTGCAG | 5390 fluorescence intensity (a.u.)
AAAACTAATGTAACTTAATATTAACTACTCCCCTTTCTCACGGAGTCACCTAGTGCAG | 6350 fluorescence intensity (a.u.)
GTTTGTAATAATTAATATTCGGTTGATCATTTGCGGCTTGCGGAGTCACCTAGTGCAG | 7130 fluorescence intensity (a.u.)
CAATCATTGATTGTTACTTTGTTAGTAATTGGTTAGTATACGGAGTCACCTAGTGCAG | 30100 fluorescence intensity (a.u.)
TGGTAATGAATGTTAACTATCATGAGGGGTGTTATTTACACGGAGTCACCTAGTGCAG | 8500 fluorescence intensity (a.u.)
ATGACTATTTTCACCTATAATTATAAGTTATGGAACAATACGGAGTCACCTAGTGCAG | 4820 fluorescence intensity (a.u.)
CTTAAATTATATAAAGATTTAAGTCCAAGTTTATGGAGTTCGGAGTCACCTAGTGCAG | 37500 fluorescence intensity (a.u.)
AATCGTACCATACAAATTACAAATTAAACACCTTCAGATCCGGAGTCACCTAGTGCAG | 4020 fluorescence intensity (a.u.)
GTAGATGACAGCAACAAATTATATGAGCGTGTGCTTTCAACGGAGTCACCTAGTGCAG | 12300 fluorescence intensity (a.u.)
ACTTGATTTATCACCAAATATTCTTTAAGCATGATGTAAGCGGAGTCACCTAGTGCAG | 38700 fluorescence intensity (a.u.)
GGCTGGTGATTGGGCTCAGGCAAGGTGATTGGGCTGGGCTCGGAGTCACCTAGTGCAG | 33900 fluorescence intensity (a.u.)
TACTCAATCTATTGTACTGTTTGAACTCATGACAATTAAACGGAGTCACCTAGTGCAG | 3230 fluorescence intensity (a.u.)
CGATCTCTCCTGTCTAATTTGTGTCTCGTAGAACCTACTCCGGAGTCACCTAGTGCAG | 3850 fluorescence intensity (a.u.)
AGCCTATTTGCGCGATGATTTGACAATGTGATGCTACAGTCGGAGTCACCTAGTGCAG | 4260 fluorescence intensity (a.u.)

Sequence | binding signal
TGAAATTAAACGGCATTACGTCCATGGAAATGGTTCTCGACGGAGTCACCTAGTGCAG | 3500 fluorescence intensity (a.u.)
GAACAAAATGACAATTTGGAACACCTGCCAATTTCGTTAGCGGAGTCACCTAGTGCAG | 3630 fluorescence intensity (a.u.)
AAATGGCTAAATGGTTGATTACCAGCTTACTCTTGAATTGCGGAGTCACCTAGTGCAG | 6640 fluorescence intensity (a.u.)
CTATATAAATTTTATATATACTAACTTTGTATGTTGCAACCGGAGTCACCTAGTGCAG | 4150 fluorescence intensity (a.u.)
TTGATATTCTTTATATGATTATATAGGATTGGTCTCCCTCCGGAGTCACCTAGTGCAG | 3530 fluorescence intensity (a.u.)
CACAATAATTACTACTCCCTCCGTCCCAGAATATACTAATCGGAGTCACCTAGTGCAG | 10100 fluorescence intensity (a.u.)
TTCACAATTTGATGCATAAAAGAAATCAATTGGGCCGGTGCGGAGTCACCTAGTGCAG | 3840 fluorescence intensity (a.u.)
TGCCTAATTGTTGCCATTGATTTGTTAGCCACACCTTTGGCGGAGTCACCTAGTGCAG | 40300 fluorescence intensity (a.u.)
GCTCTGATTGCTCTGACCCAACCATTCTGATCAAGCATAGCGGAGTCACCTAGTGCAG | 25000 fluorescence intensity (a.u.)
TTTGTGATAAACAGATACACTAAATCTATAGTTTTGGGAACGGAGTCACCTAGTGCAG | 4340 fluorescence intensity (a.u.)
AGATAACAAATTGGACATACCATTACCAACATAACCTTAGCGGAGTCACCTAGTGCAG | 11500 fluorescence intensity (a.u.)
ATTGATAGTATATAATATATCACATTTCATACTTCCTTCGCGGAGTCACCTAGTGCAG | 5840 fluorescence intensity (a.u.)
GCAGACTGATTGCAAGAGTTGAGTAAGATCCTGGATCTCTCGGAGTCACCTAGTGCAG | 27900 fluorescence intensity (a.u.)
TTTGATGTGATGGAAAAGTTGAAAGTTTGAAGTAAACTCGCGGAGTCACCTAGTGCAG | 9880 fluorescence intensity (a.u.)
AAACTGATTGAAAGGCCCCACCAACCAGAAAAGCACCATCCGGAGTCACCTAGTGCAG | 32100 fluorescence intensity (a.u.)
CTGAAATTGAAGTTAAATGCTACTAGTAATAATTGTACTACGGAGTCACCTAGTGCAG | 30100 fluorescence intensity (a.u.)
TCTGGAAATTTGGGCTAAATTTCTGGGCGTGACACTACTCCGGAGTCACCTAGTGCAG | 4830 fluorescence intensity (a.u.)
AAGAATAGACGAGGCTAATTAAGCTAAAGACTTTCTTGGACGGAGTCACCTAGTGCAG | 16700 fluorescence intensity (a.u.)
CCCACTTATTTGATTTGTCTTAATTCCCATAGCAATTCTTCGGAGTCACCTAGTGCAG | 15100 fluorescence intensity (a.u.)
CGATGACTGAATTATCACACTTACGTATGGTGACTATTAACGGAGTCACCTAGTGCAG | 11600 fluorescence intensity (a.u.)
GAACCATTTCAACGCGAGGTTGATTGTCTCATGAGGATTACGGAGTCACCTAGTGCAG | 3260 fluorescence intensity (a.u.)
